About 230 (0.21%) of roughly 110,000 compounds showed an effect of 50% or more. The list shows a part of the results.
Each compound was assayed against DPAP1 (Plasmodium falciparum, UniProt Q8IIJ9) (assay: primary screen, percent inhibition; read by cleavage of a fluorogenic dipeptide substrate; higher = more effect of the substance).
Design: species or system P. falciparum D10 trophozoite lysates; single well
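Also: 30 min substrate incubation versus DMSO and 10 µM JCP410 controls.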

DPAP1, sequence (Q8IIJ9 whole entry, looked up): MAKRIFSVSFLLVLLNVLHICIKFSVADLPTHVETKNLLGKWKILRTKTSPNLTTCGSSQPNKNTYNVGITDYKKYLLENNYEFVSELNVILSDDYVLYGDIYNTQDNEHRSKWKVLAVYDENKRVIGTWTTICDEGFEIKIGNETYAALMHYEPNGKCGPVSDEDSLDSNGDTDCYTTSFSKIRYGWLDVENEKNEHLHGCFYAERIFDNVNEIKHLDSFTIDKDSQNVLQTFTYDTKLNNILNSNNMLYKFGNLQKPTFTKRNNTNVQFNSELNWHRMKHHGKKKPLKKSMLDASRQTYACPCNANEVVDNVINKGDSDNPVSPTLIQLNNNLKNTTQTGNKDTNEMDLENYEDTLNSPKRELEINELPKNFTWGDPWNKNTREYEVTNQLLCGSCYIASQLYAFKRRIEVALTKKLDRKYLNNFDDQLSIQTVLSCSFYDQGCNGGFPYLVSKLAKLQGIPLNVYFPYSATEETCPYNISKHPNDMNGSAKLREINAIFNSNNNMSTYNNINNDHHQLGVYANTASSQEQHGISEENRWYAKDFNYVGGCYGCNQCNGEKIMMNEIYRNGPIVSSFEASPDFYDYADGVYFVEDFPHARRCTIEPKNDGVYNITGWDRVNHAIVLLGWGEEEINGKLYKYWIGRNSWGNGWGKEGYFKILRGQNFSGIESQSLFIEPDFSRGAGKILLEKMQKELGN

| SMILES | % Inhibition @ 10 uM [%] |
| --- | --- |
| CCCOc1cccc(C2c3c(oc4ccc(F)cc4c3=O)C(=O)N2CCOC)c1 (stereo not drawn) | -6.71 |
| CCN(CC)CCCNC(=O)c1oc2ccc3c(c2c1C)C(O)CC(C)(C)O3 (stereo not drawn) | -0.591 |
| COc1nc(N)c(C#N)c(-c2ccc3c(c2)OCO3)c1C#N | 0.716 |
| O=C1NC(=O)N(c2ccc(Cl)cc2)C(=O)/C1=C\NCCc1c[nH]c2ccccc12 | -0.725 |
| CCOC(=O)C1CCCN(C(C)Cc2cccc(C(F)(F)F)c2)C1 (stereo not drawn) | -7.18 |
| Cc1[nH]c2ccccc2c1C(OC(C)C)c1ccccn1 (stereo not drawn) | -3.33 |
| CCOC(=O)C1=C(CC)OC(N)=C(C#N)C1c1ccccc1F (stereo not drawn) | 3.03 |
| CC1CCN(C(=O)c2cc(-c3ccc(F)cc3)on2)CC1 | -1.96 |
| O=C(NCc1cccnc1)/C(=C\c1ccc(Br)cc1)S(=O)(=O)c1ccccc1 | -1.25 |
| CCOC(=O)c1c(C)c(-c2ccccc2)n(CC(=O)NC2CCC(C)CC2)c1C (stereo not drawn) | 3.32 |
| COc1cc2c(cc1OC)C(C)N(C(=O)c1cc3c(s1)-c1ccccc1S(=O)(=O)C3)CC2 (stereo not drawn) | -4.24 |
| CC(C)(C)c1ccc(/C=C/C(=O)Nc2cccnc2)cc1 | -3.14 |
| CC(CNc1nc2c(-c3ccccc3)nnn2c2ccccc12)c1ccccc1 (stereo not drawn) | -2.92 |
| CCCCn1c(CNC(=O)c2cc(OC)c(OC)c(OC)c2)nc2ccccc21 | 8.55 |
| Cc1ccc(C(=O)/C=C(\c2ccccc2)N2CCCCC2)cc1 | 1.44 |
| CCN(CC)S(=O)(=O)c1ccc(S(=O)(=O)N(Cc2cccc(OC)c2OC)C2CC2)cc1 | -1.31 |
| C=CCC1(NCc2ccccc2)CCCCCC1 | -4.4 |
| Cn1c(=O)[nH]c(=O)c2c1nc(Br)n2CC(O)COc1ccc2ccccc2c1 (stereo not drawn) | -0.996 |
| CC1CCC(C(C)C)C(OC(=O)CSc2nc3ccccc3[nH]2)C1 (stereo not drawn) | 3.74 |
| O=C(O)c1ccc(NCCCO)c([N+](=O)[O-])c1 | -1.46 |
| COc1ccc(C(=O)Nc2cc(C)cc(C)c2)cc1Br | 5.06 |
| CC1CCN(C2=NC(=O)/C(=C\c3ccccc3)S2)CC1 | -0.28 |
| C=CCN1C(=O)S/C(=C/c2cc(Cl)c(OC)c(OCC)c2)C1=O | -1.11 |
| N#Cc1nc(/C=C/c2ccc(F)cc2)oc1N1CCN(Cc2ccccc2)CC1 | -2.57 |
| CCC(C(=O)NCc1ccccc1C)n1sc2ccccc2c1=O (stereo not drawn) | 3.24 |

| SMILES | % Inhibition @ 10 uM [%] |
| --- | --- |
| O=C1NC(=O)/C(=C\c2cccc(OCc3ccccc3F)c2)S1 | 3.04 |
| Cc1ccc(OC(C)C(=O)Nc2ccc(C)c(O)c2)cc1 (stereo not drawn) | 0.795 |
| CCc1cc(C(=O)COc2ccccc2)c(O)cc1O | 2.37 |
| COc1ccc(CNC(=O)C2CCCN(S(=O)(=O)c3ccc(Br)s3)C2)cc1 (stereo not drawn) | -1.92 |
| N#CC(C#N)=Cc1c[nH]c2ccccc12 | -5.33 |
| COc1cc(C2C3=C(O)CCCC3=NC(C)=C2C(=O)N2CCOCC2)cc(Br)c1O (stereo not drawn) | -2.64 |
| Oc1ncnc2c1sc1nc3c(c(-c4ccccc4)c12)CCC3 | -2.28 |
| Cc1sc(NC(=O)c2ccco2)c(C(c2cccc(O)c2)N2CCOCC2)c1C (stereo not drawn) | -8.28 |
| COc1ccc(/C=C2\N=C(c3cc(Br)ccc3OC)OC2=O)c(OC)c1 | -6.62 |
| O=C(NCc1ccc(Cl)cc1)c1nccnc1CO | 2.13 |
| Cc1ccc(-c2onc(C)c2C)cc1S(=O)(=O)NCCc1ccc(Cl)cc1 | -9.1 |
| CCc1c(C#N)c(SCC(=O)Nc2nc(-c3ccccc3)ns2)nc2c1C(=O)CC(C)(C)C2 | 3.27 |
| Cc1c(Cl)cccc1N(CC(=O)Nc1cccnc1)S(C)(=O)=O | -5.7 |
| N#CCCC(CCC#N)C1=NCCc2ccccc21 | -0.856 |
| Cc1c(CNCCc2ccc(S(N)(=O)=O)cc2)c(C(=O)O)c(C)n1Cc1ccccc1F | -0.23 |
| Cc1nc2ccccc2n1CCc1nc2c3ccccc3nc(N3CCc4ccccc4C3)n2n1 | 2.6 |
| CC(C)Cc1ccc(C(C)C(=O)NC(C)Cc2c[nH]c3ccccc23)cc1 (stereo not drawn) | 1.7 |
| COc1ccc(N(CC(=O)Nc2ccccc2-c2ccccc2)S(C)(=O)=O)c(OC)c1 | -3.1 |
| CC(=O)Nc1ccc(N2Cc3ccccc3C2)cc1 | -3.77 |
| Clc1cccc(CN2CCN(c3ncccn3)CC2)c1Cl | -2.7 |
| COC(=O)c1sccc1NC(=O)C(c1ccccc1)N1Cc2ccccc2C1=O (stereo not drawn) | -0.501 |
| CCCCOc1ccccc1C1C(C(=O)OC)=CN(Cc2ccc(OC)c(OC)c2)C=C1C(=O)OC | 4.99 |
| CCCc1c(O)c2ccccc2n(-c2ccccc2)c1=O | -5.63 |
| CCCN1CCN(c2cnnc3c(Cl)cccc23)CC1 | 1.4 |
| Cc1nn(C(C)C(=O)NCCCc2ccccc2)c(=O)c2c1sc1ccccc12 (stereo not drawn) | -2.94 |

| SMILES | % Inhibition @ 10 uM [%] |
| --- | --- |
| O=C(Nc1ccc(Cc2ccncc2)cc1)c1cccc(Cl)c1 | 0.245 |
| COc1ccccc1/C=C1\N=C(c2ccco2)OC1=O | -6.18 |
| CCCCCSc1nnc(O)nc1O | 5.7 |
| Cc1ccc2c(nc3s/c(=C\c4ccc(Cl)cc4)c(=O)n32)c1C | 3.15 |
| CCOC(=O)c1c(S(=O)(=O)NCCN(C)C2CCCCC2)c(C)n(C)c1C | -6.84 |
| COc1cc(CN2CCCC(O)C2)cc(OC)c1OC (stereo not drawn) | 0.847 |
| COc1ccccc1CNC(=O)c1ccccc1Cl | 3.53 |
| Cc1cc2nc(COc3cccc(C(F)(F)F)c3)cc(=O)n2o1 | -0.495 |
| Cc1cccc(C(=O)Nc2nc3nc(C)c(Cc4ccccc4)c(O)n3n2)c1 | -4.91 |
| O=C(Cn1nc(Cc2ccncc2)c2ccccc2c1=O)N1CCCC1 | -1.21 |
| Cc1ccc(C)c(COC(=O)N[C@@H](CC(C)C)C(=O)NCC#N)c1 | -3.24 |
| CCCCNc1ncnc2c1sc1nc(N3CCCC3)c3c(c12)CC(C)(C)OC3 | -1.72 |
| Cc1csc(NC(=O)C(c2ccccc2)N2Cc3ccccc3C2=O)n1 (stereo not drawn) | -3.88 |
| O=C(Nc1cccc(NC(=O)c2ccc3c(c2)OCO3)c1)c1ccc2c(c1)OCO2 | 2.42 |
| CCC(C(=O)Nc1ccccc1OC)c1ccccc1 (stereo not drawn) | -1.56 |
| CCC1CCCCN1CCCNC(=O)Cn1c(=O)c2cccn2c2cccnc21 (stereo not drawn) | -0.677 |
| CCC(=O)N1CCN(CCNC=C2C(=O)N(C3CCCCC3)C(=O)N(C3CCCCC3)C2=O)CC1 | -11.2 |
| CCOC(=O)c1c(-c2ccccc2)c(C(C)=O)c(=O)n(C)c1C | 12.8 |
| COc1ccc(C(=O)Nc2cccc3ccccc23)cc1OC | -0.192 |
| O=C(NCCC(c1ccccc1)c1ccccc1)c1cc2ccccc2c(=O)o1 | -4.77 |
| Cc1ccc(NC(=O)c2ccc(Br)cc2)cc1Cl | -1.22 |
| CCOc1ccc(/C=c2\sc3nc(-c4cc(OC)c(OC)c(OC)c4)nn3c2=O)cc1OC | 3.87 |
| c1cncc(CNC2CCCc3ccccc32)c1 (stereo not drawn) | -0.582 |
| COc1ccc(C2OCC3(CO)CC=C(C)C2C3)cc1 (stereo not drawn) | -0.415 |
| CC(C)OCCCN1C(=O)c2[nH]nc(-c3ccccc3O)c2C1c1ccc(Cl)cc1 (stereo not drawn) | 2.02 |

| SMILES | % Inhibition @ 10 uM [%] |
| --- | --- |
| O=C(c1ccco1)N1CCN(C(=O)c2oc(=O)c3ccccc3c2-c2ccccc2)CC1 | 0.208 |
| Cc1nc2c(c(C)nn2C(C)(C)C)c(C)c1CCC(=O)Nc1ccc(Br)cn1 | -6.09 |
| O=C(C[n+]1ccn2cccc2c1-c1ccccc1)c1ccccc1 | 3.34 |
| CCOc1cc2c(cc1OCC)C(C(CC)CC)NCC2 (stereo not drawn) | -1.55 |
| C=CCSc1nnc(-c2cccnc2)n1Cc1ccccc1 | -3.08 |
| COc1ccc(N(CC(=O)Nc2cccc3ccccc23)S(C)(=O)=O)cc1 | -8.67 |
| COc1cccc(/C=C2\N=C(c3cncc(Br)c3)OC2=O)c1 | 0.26 |
| CO/C(O)=C1/C(C)=Nc2c(c(=O)n(C)c(=O)n2C)C1c1ccc(Br)cc1 (stereo not drawn) | -3.41 |
| CC(C)(C)C1CCC(N2CCN(c3ccccc3)CC2)CC1 (stereo not drawn) | -5.94 |
| CCN1CCN(C(=O)C2CCN(c3nn4cc(-c5ccc(F)cc5)nc4s3)CC2)CC1 | -7.33 |
| Cc1nn(-c2ccccc2)c2c1N(CC(=O)NC(C)c1ccccc1)C(=O)CS2 (stereo not drawn) | 4.32 |
| COc1ccc(CN2C(=O)c3cccnc3C2=O)cc1S(=O)(=O)Nc1cccnc1 | 5.87 |
| COCCOC(=O)C1=C(C)N=C2SCCC(=O)N2C1c1ccc(OCc2ccccc2)cc1 (stereo not drawn) | 3.27 |
| FC(F)(F)c1ccc(CN2CCN(c3ccccc3)CC2)cc1 | -0.0404 |
| COc1cc(-c2nnc(N)s2)cc(OC)c1OC | 0.997 |
| O=C(NC(Cc1ccccc1)C(=O)O)/C(=C/c1ccccc1)NC(=O)c1ccc(Br)o1 (stereo not drawn) | 5.59 |
| COC(=O)c1sc2nc3n(c(=O)c2c1C)N=C(c1ccc(Cl)s1)CS3 | 2.72 |
| COc1cccc(S(=O)(=O)NCC(=O)Nc2ccc(Cl)c(C(F)(F)F)c2)c1 | -3.41 |
| CC(=O)c1nn(-c2ccc(OC(F)(F)F)cc2)nc1NC1CC1 | -5.33 |
| CCOc1ccc(/C=C/c2nc(C#N)c(NCCCN(CC)CC)o2)cc1 | 4.13 |
| O=C(NC1CCCCC1)c1cc2c(s1)-c1ccccc1S(=O)(=O)C2 | -0.447 |
| COc1ccc(C(C)(C#N)CC#N)cc1 (stereo not drawn) | -0.807 |
| COC(=O)C1=CN(CC2CCCO2)C=C(C(=O)OC)C1c1cccc(Oc2ccccc2)c1 (stereo not drawn) | -1.6 |
| O=S(=O)(Cc1ccccc1)Nc1ccncc1 | -1.03 |

From publication PMC6919601, “Identification of Plasmodium dipeptidyl aminopeptidase allosteric inhibitors by high throughput screening” (PLoS ONE, 2019)
